Target: rat mAb 45.1 (against Pfs48/45 conformational epitope I)

B1: Pro-6C fusion protein (Pfs230 Pro domain fused to Pfs48/45 6C), produced in L. lactis (other)
chain: GAMVDTLSGLSSEQGQSGDMTIEEDS[no letters for about 80 residues]GKATKGDAHIGGSEYVDEKERQGEIYPFGDEEEKDEGGESFTYEKSEVDKTDLFKFIEGGEGDDVYKVDGSKVLLDDDTISRVSKKHTARDGEYGEYGEAVEDGENVIKIIRSVLQSGALPSVGVDELDKIDLSYETTESGDTAVSEDSYDKYASNNTNKERSEKKVIHGCNFSSNVSSKHTFTDSLDISLVDDSAHISCNVHLSEPKYNHLVGLNCPGDIIPDCFFQVYQPESEELEPSNIVYLDSQINIGDIEYYEDAEGDDKIKLFGIVGSIPKTTSFTCICKKDKKSAYMTVTIDSAHHHHHH
  % of folding: 90%

— patent US20220194996A1 (STATENS SERUM INSTITUT, published 2022)
